Source: PubChem BioAssay AID1508623 (National Center for Advancing Translational Sciences (NCATS), 2021)
In all, about 48,000 compounds went through this assay and about 450 (0.94%) were called active. Inconclusive results, whose numbers are uncertain, are shown with a selection of clear calls. The call rests on the fitted dose curve; in most records, active means well fitted inhibition curve with a large enough effect; inconclusive means small, poorly fitted or top-dose-only effect; inactive means no such curve, though single readings can be large or run the other way. Where the call is inconclusive, the potency comes from a doubtful curve fit.

assay: Primary qHTS for Identification of Small Molecule Inhibitors of Huntingtin Promoter Activity; settings: HEK293 HTT promoter firefly luciferase reporter (activity 0% = vehicle and -100% = no light), 24 h; series mostly up to 57.5 µM; further: nearly all actives have a fitted effect of over 50% in size
Summary of the method: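 HEK293 cells carrying firefly luciferase reporters were seeded at 2,500 per well in Opti-MEM and cultured for 24 h. They were then treated with compounds at up to 57.5 uM final for 24 h at 37 degrees C before Dual-Glo luminescence readout.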
Potency means the concentration at half of the fitted maximal effect; tags describe the fitted curve by direction and shape.

Structure (SMILES) | Potency
COc1ccc2[nH]cc(CCNC(=O)c3cnn(-c4ccccc4Cl)c3C3CCN(C(=O)OC(C)(C)C)CC3)c2c1 | inconclusive: 31.6 µM [inhibitor, single point]
Cc1nc2c(C(=O)NCCc3ccccc3)c[nH]n2c(=O)c1Cc1ccc(F)cc1Cl | inactive
Cc1ccc2nc(N(Cc3cccnc3)C(=O)c3cccs3)sc2c1 | inconclusive: 39.8 µM [inhibitor, single point]
CCCn1c(CCC(=O)Nc2cccc(CC)c2)nc2cccnc21 | inconclusive: 39.8 µM [inhibitor, partial curve, poor fit]
CCCSc1nnc2n(-c3ccc(OC)cc3)c(=O)c3c4c(sc3n12)COC(C(C)C)C4 (stereo unspecified) | inactive
Cc1nn(C(C)(C)C)c(OC(=O)c2cccc(F)c2)c1Sc1ccccc1 | inconclusive: 25.1 µM [inhibitor, partial curve, poor fit]
CN(C)CCOC(c1ccccc1)c1ccccc1 | inconclusive: 43.2 µM [inhibitor, single point]
CCc1ccc(CN(Cc2ccco2)C(=O)COc2ccc(Cl)cc2C)cc1 | inconclusive: 28.2 µM [inhibitor, single point]
COC(=O)c1ccc2c(=O)n(CCCCCC(=O)NC(C)C)c(=O)[nH]c2c1 | inconclusive: 22.4 µM [inhibitor, single point]
O=C(NCc1ccccc1)N1CCc2c(sc3c2CCCC3)C1c1ccccc1 (stereo unspecified) | inconclusive: 31.6 µM [inhibitor, partial curve, poor fit]
CCOc1ccc(C(=O)Nc2ccc3nc(SCC(=O)N(C)c4ccccc4)sc3c2)cc1 | inconclusive: 8.91 µM [inhibitor, full curve]
CCOC(=O)c1cc(-c2ccc(OC)cc2)n(CCC(=O)Nc2ccc(OC)cc2OC)c1C | inconclusive: 35.5 µM [inhibitor, single point]
CCOc1ccc(/C=C/c2nc3ccccc3n2S(=O)(=O)c2cccc(Cl)c2)cc1 | inconclusive: 39.8 µM [inhibitor, single point]
COc1cccc(-c2nc(SCC(=O)NC3CCCC3)c(-c3ccc(F)cc3)[nH]2)c1 | inconclusive: 35.5 µM [inhibitor, single point]
CC1CCN(S(=O)(=O)c2ccc3nc(Nc4cccc(C(F)(F)F)c4)ccc3c2)CC1 | inconclusive: 25.1 µM [inhibitor, partial curve, poor fit]
COc1ccc(C2=C(C)C(=O)N(Cc3ccc(C(=O)Nc4ccc(C)c(C)c4)cc3)S2(=O)=O)cc1 | inconclusive: 8.91 µM [inhibitor, full curve]
